For one series, the system named is HepG2 cells. The series can be described thus: viability of HepG2 cells. In kind it is cell-based. On the procedure: Data points represent mean s.d. (n=3).
(§1) Next, a cell viability assay using B16F10 cells was carried out to study the toxicity profiles of alloc-DOX, DOX and alloc-DOX/PT-MNs 10 combination at different concentrations from 5 nM to 0.2 μmM.

The next series deals with calf thymus DNA. The experiment in a line: fluorescence titration of binding to ctDNA. The settings on record: fluorescence titration method. The text has this:
In vitro prodrug activation by PT-MNs.

The nature of series [1]: in vivo toxicity by body weight change after i.p. injection. Details: species or system mice. The text has this: In vivo prodrug activation by PT-MNs for cancer therapy. To evaluate the in vivo tumor inhibition performance by the bioorthogonal PT-MNs/alloc-DOX combination, an anticancer study was undertaken using a B16F10 μmouse melanoma model. First, the ability of PT-MNs 10 to penetrate skin tissue 100 was evidenced by pressing the patch 10 with a gentle force against the skin 100 over the melanoma tumor (FIGS. 36A-36C). It could be seen that the needle 14 matrix swelled into three-dimensional porous networks after removing from mice (FIGS. 37A-37B), such changes in structure could help to alleviate mass transport barriers during the bioorthogonal catalysis. Meanwhile, to decide which the dose of alloc-DOX could be given for treatment, the in vivo toxicity of alloc-DOX was determined by measuring the weight changes of mice and compared with those of mice treated with DOX (FIGS. 38A-38B).

In the next series the test system is B16F10 tumor. The series can be described thus: B16F10 mouse melanoma model, antitumor study. The format is in vivo, mice. The settings on record: for tumor growth: once every 3 days, 100 mg/kg alloc-DOX, 5 μmg/kg DOX i.p. On the procedure: Next, B16F10 tumor-bearing mice were randomly divided into five groups and treated with alloc-DOX/PT-MNs 10 combination, DOX, alloc-DOX, PT-MNs 10 (without prodrug) and PBS, respectively, once every 3 days. DOX, alloc-DOX and PBS were administered by i.p. injection. Before starting injection of prodrugs, PT-MNs 10 were inserted into the tumor site from the surface skin and fixed there for one (1) hour to allow the needles 14 to swell thoroughly. Bioluminescence imaging and tumor volumes were recorded to visualize tumor growth and evaluate the therapy efficiency (FIG. 6A).

In series [2] the test system is B16F10 cells. The experiment in a line: TUNEL assay in cell culture. The format is cell-based, mouse.
Series [3] has as its system B16F10 cells. The experiment in a line: cell viability assay, B16F10 cells. The format is cell-based, mouse. On the procedure:
as §1

Another series relates to 4T1 cells. The experiment in a line: viability of 4T1 cells. In kind it is cell-based. As for the experimental part: as §1
Series [4] deals with B16F10 cells. The experiment in a line: Annexin V-APC / SYTOX Green flow cytometry of apoptosis. The format is cell-based, mouse. (In general: A flow cytometer gives signals particle by particle.)
Series [5] is described as follows: drug/prodrug concentrations in tissues versus time. The settings on record: all tissues after i.p. injection. The format is in vivo, mice. As for the experimental part:
To gain further insights into these treatment results, the concentrations of drug/prodrug in various tissues, including tumor, plasma, and other major organs, versus time after different treatments were analyzed. […] In comparison with the group treated with DOX, there was more alloc-DOX than DOX in all tissues, which was due to that the dose of prodrug was allowed to be given higher. […] This might be attributed to the three-dimensional configuration of PT-MNs 10 that facilitated the uniform diffusion of the generated DOX within tumors and thereby promote their uptake by cancer cells. The small amount of DOX measured in some tissues might originate from the DOX generated by the part of microneedles 14 that stride between the tumor area and the skin. Collectively, it can be concluded that the accumulation of alloc-DOX inside tumors and its locoregional activation by the bioorthogonal catalytic patch 10 restored the drug's pharmacological property to combat tumors from within while minimizing side toxicity towards distant organs and tissues.

The nature of series [6]: catalytic deprotection of alloc-DOX by Pd-TNSs (HPLC).

Read-outs that look alike come from different tables or passages of the source.

As for `COc1cccc2c1C(=O)c1c(O)c3c(c(O)c1C2=O)C[C@@](O)(C(=O)CO)C[C@@H]3O[C@H]1C[C@H](N)[C@H](O)[C@H](C)O1` [DOX, Doxorubicin], the concentration for half-maximal inhibition (IC50) (usually the concentration needed to halve the response being measured) with HepG2 cells (Homo sapiens) came to 0.34 µM; in the series with B16F10 cells [3] (Mus musculus, B16-F10), 0.08 µM; in the series with 4T1 cells (Mus musculus) it was 0.22 µM. Besides, the “binding constant K toward ctDNA” value in the series with calf thymus DNA is 936000 M⁻¹. Further, the time of death result in series [1] (10 μmg/kg i.p. every 3 days) is given as “fourteenth day”; in series [1] (15 μmg/kg i.p. every 3 days), “seventh day”. Also, the tumor growth entry with B16F10 tumor was “Moderate inhibitory outcome”. Further, the “TUNEL assay in tumor tissue” value in the series with B16F10 tumor (tumor sections) was “apoptotic signals”. In addition, in the series with B16F10 cells [2], the “apoptotic DNA fragmentation (TUNEL)” value is recorded as “extensive apoptotic DNA fragmentation”. The “proportion of cell population Annexin V-APC positive” value in the series with B16F10 cells [4] (12 h) came to 64.2%.

`C=CCOC(=O)N[C@H]1C[C@H](O[C@H]2C[C@](O)(C(=O)CO)Cc3c(O)c4c(c(O)c32)C(=O)c2c(OC)cccc2C4=O)O[C@@H](C)[C@H]1O` [alloc-DOX, N-(allyloxycarbonyl) doxorubicin]: the 50% inhibitory concentration (IC50) in the series on HepG2 cells was about 9.08 µM; with B16F10 cells [3], 9.29 µM; in the series with 4T1 cells it was about 8.06 µM. In addition, the entries for the “times less toxic than DOX” value in the series on HepG2 cells (from IC50), in the series with B16F10 cells [3] (from IC50) and with 4T1 cells (from IC50) were “about 27 times”, about 120 times and “around 37 times”, respectively. Also, the “DOX detected in tissues” value in [5] is given as “no DOX was detected”. In addition, the “binding constant K toward ctDNA” value with calf thymus DNA came to 79600 M⁻¹. In series [1] (i.p. every 3 days, dose 150 μmg/kg), the body weight changes is recorded as at most 10%. The weight loss in series [1] (i.p. up to 150 μmg/kg every three days) was about 7.7%. For the same molecule, the tumor growth result with B16F10 tumor was “no delayed tumor growth”. In the series on B16F10 cells [4] (flow cytometry), the apoptotic cell death entry was “no significant apoptotic cell death”. Further, the figures for the “yield of DOX from alloc-DOX” value in series [6] (reaction mixture with Pd-TNSs after 24 h) and in series [6] (reaction mixture without Pd-TNSs) were about 81.6% and 0%, respectively.

Values taken from patent US20240382412A1, “BIOORTHOGONAL CATALYTIC PATCH AND METHODS OF USING THE SAME” (THE REGENTS THE UNIVERSITY OF CALIFORNIA, priority 2020, published 2024).
